Experimental data reported in patent US11197891B2, “Therapies with lanthionine C-like protein 2 ligands and cells prepared therewith” (Landos Biopharma, Inc., priority 2017, dated 2021).

Key:
Rag2−/− recipient mice = assay: Adoptive transfer model: Teff and Treg co-transfer into Rag2−/− mice; type: in vivo
WT Tregs = assay: Metabolic analysis (pyruvate kinase, pyruvate dehydrogenase, PEP) in in vitro Tregs; type: cell-based, mice
Experimental: (§1) Colons and cells were suspended within assay specific buffer and homogenized for 10 seconds. Homogenate was centrifuged for 10 minutes at 10,000×g. For enzyme activity assays, supernatant was collected and plated. Samples were mixed with enzyme developer and substrate. Colorimetric detection of NADH production was measured using a BioTek μQuant plate reader in combination with Gen5 software. For PEP assay, supernatant was deproteinized using perchloric acid mediated purification. Samples were plated and mixed with a probe, converter, developer mix. PEP concentration was measured by absorbance quantification on plate reader.
Spleens from WT and Lancl2−/− mice were excised and crushed to generate a single cell suspension. CD4+ T cell fraction was enriched by negative selection via magnetic sorting with the BD IMag system. Naïve CD4+ T cells were obtained by incubation with a biotinylated CD62L antibody followed by conjugation to streptavidin coated magnetic beads. Naïve cells were incubated for 48 hours within anti-CD3 coated tissue culture plates in complete IMDM media containing all-trans retinoic acid and purified TGF-β to stimulate differentiation into Tregs. […] Metabolic modulators, PS-48 (5 μM), DASA-58 (10 μM), and thapsigargin (10 nM), were added at 0 h. […] Six hours prior to assay, cells were stimulated with PMA and ionomycin. Cells were collected from plate for downstream analysis by flow cytometry, gene expression and metabolic assay.

Mdr1a−/− mice = Mdr1a−/− mice with PS-48 injections (in vivo validation of immunometabolic effect)
Experimental: as §1
To validate the in vitro immunometabolic findings, Mdr1a−/− mice were given weekly intraperitoneal injections of PS-48 or vehicle control. […] Similar patterns were observed within the DSS model.

Naïve CD4+ T cells = assay: Differentiation of naïve CD4+ T cells into Tregs with IL-2 or IL-12 (flow cytometry); type: cell-based, mice
Experimental: Naïve CD4+ T cells were isolated from the spleens of mice by magnetic sorting. The isolated cells were incubated in anti-CD3/anti-CD28 coated 96 well plates in Treg differentiation media. The Treg differentiation media was Iscove's Modified Dulbecco's Medium (IMDM) media (ThermoFisher Scientific) supplemented with fetal bovine serum, HEPES, penicillin/streptomycin, L-glutamine, and differentiation agents. The Treg differentiation agents were 10 nM all-trans-retinoic acid and 5 ng/mL TGF-β. Additional experiments were conducted comparing differentiation in the Treg differentiation media with and without the addition of 10 ng/mL IL-2 or IL-12. […] Prior to assay, cells were stimulated with PMA and ionomycin for 6 hours.
Colonic lamina propria lymphocytes and cultured cells were plated in 96 well plates (6×10^5 cells/well) and processed for immunophenotyping by flow cytometry as previously described. Briefly, cells were incubated with fluorochrome conjugated antibodies to extracellular markers: CD45, CD4, CD3, CD25, CD8. Samples needing a secondary staining were incubated with secondary antibodies, or streptavidin-conjugated fluorochrome. The samples were then fixed and permeabilized. Cells were incubated with antibodies to intracellular markers: Tbet, IFNγ, IL10, FOXP3, IL17, RORγT. Data was acquired with a BD FACS Celesta flow cytometer and analyzed using FACS Diva software (BD Pharmingen).
Naïve CD4+ T cells were differentiated into Tregs in vitro in the presence or absence of IL-2 according to the methods described above.
Cells were also differentiated in the presence of inhibitors for PTEN (SF1670) or STATS (STAT5i).

[1] = tested on: colonic CD4+ T cells from Mdr1a−/− mice; assay: Gene expression in colonic CD4+ T cells of treated Mdr1a−/− mice; type: in vivo; conditions: oral BT-11, 10 weeks of age
[2] = after oral administration; cited from earlier work
[3] = tested on: Lancl2ΔT and Lancl2-expressing control mice challenged with DSS; conditions: early evaluations of efficacy; cited from earlier work
C. difficile = C. difficile culture in chopped meat media (anti-microbial properties)
[4] = at 10 weeks of age, oral BT-11, vehicle injections
[5] = IL-12-treated samples (10 ng/mL)

SMILES: O=C(c1cccc(-c2nc3ccccc3[nH]2)n1)N1CCN(C(=O)c2cccc(-c3nc4ccccc4[nH]3)n2)CC1 [BT-11, N,N-Bis(benzimidazolylpicolinoyl)piperazine]
- efficacy of oral treatment (Rag2−/− recipient mice; KO Teff / WT Treg transfer): presented efficacy in recipients of WT Treg cells
- cellular or histopathological characterizations of inflammation (Rag2−/− recipient mice; WT Teff / KO Treg transfer): no benefit of BT-11 treatment
- inflammation across all measures (disease activity, histopathology, Th1, neutrophils, cytokines) (Rag2−/− recipient mice; WT Teff / WT Treg transfer): consistent decreases in inflammation
- phosphoenolpyruvate (PEP) concentration (WT Tregs; BT-11-treated Tregs versus vehicle-treated controls): significantly lower
- pyruvate kinase activity (WT Tregs; WT Tregs, 0.625 μM): increase in pyruvate kinase activity
- pyruvate dehydrogenase (PDH) activity (WT Tregs; particularly at 0.156 μM and 0.625 μM): stimulated by BT-11 treatment
- PDH activity within the colon (Mdr1a−/− mice; [4]): increased PDH activity
- PEP concentration within the colon (Mdr1a−/− mice; [4]): decreased PEP concentration
- expression of Treg cell-stability associated genes in colon (Mdr1a−/− mice; oral BT-11): upregulated with BT-11 treatment
- CD25+ FOXP3+ subtype (Naïve CD4+ T cells; 100 nM, absence of IL-2): significantly increased the establishment of a CD25+ FOXP3+ subtype
- CD25+ FOXP3+ cells (Naïve CD4+ T cells; [5]): retained significantly higher levels of CD25+ FOXP3+ cells
- CD25+ Tbet+ cells (Naïve CD4+ T cells; [5]): dose-dependent protection against this mixed subset
- CD25+ FOXP3+ cells (Naïve CD4+ T cells; as low as 10 nM, presence of IL-2 (10 ng/mL)): induced significantly more CD25+ FOXP3+ cells
- CD25+ Tbet+ subtype (Naïve CD4+ T cells; with or without IL-2): not statistically altered by BT-11
- expression of Pten and Phlpp1 [1]: slightly, but non-significantly, increased
- expression of Stat5a and Foxo1 [1]: significantly higher expression
- plasma half-life [2]: 3.1 h
- systemic bioavailability [2]: < 10%
- disease activity scores in mice challenged with DSS [3]: improvement in disease activity scores
- colony forming units (C. difficile; BT-11 at 1, 10 and 100 ug/mL, 24 hours after inoculation): No concentration of BT-11 tested induced a decrease
- ability of C. difficile to form spores (C. difficile; exposure to BT-11): did not change
